From the supplement of paper PMC10126150
Values marked as one replicate rest on one cluster of the flow cell; about a third of the high ones do not repeat.

Test system: ATP
Test: switch fluorescence ratio, 500 uM ATP over buffer (Cy3 cluster intensity, sum of 5 cycles each) (fold (ratio)); higher = stronger signal-on switching upon ATP binding; sequences stand for … in TCGTCGGCAGCGTCAGATGTGTATAAGAGACAGTTTTTTTTTTTTTTTTTTTTTTTTT…TC
Conditions: aptamer strand: ATP DNA aptamer (quencher-CACCTGGGGGAGTATTGCGGAGGAAGG + anchor), 100 nM annealed; ATP concentration: 500 uM; one replicate
Method in brief: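 Cy3-labelled switching-strand clusters on a modified Illumina MiSeq flow-cell were annealed to 100 nM quencher-labelled ATP aptamer, imaged in selection buffer, then imaged after 15 min with 500 uM ATP at 22 °C. Five buffer/ATP cycles ran, with NaOH stripping and re-annealing between them. The fluorescence ratio is summed target-cycle over summed buffer-cycle Cy3 intensity per cluster, averaged per switch-domain sequence. Clusters outside 100-1000 RFU were excluded.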
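Further: ATP exposure 15 min at 22 °C before imaging.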

With GGATGACGAA the switch fluorescence ratio was 0.996.

Work on GAAATTGACT yielded a switch fluorescence ratio of 1.02.

Work on CGAGGCTGCG yielded a switch fluorescence ratio of 1.

CCTTTGGGG was tested, and the switch fluorescence ratio was 0.968.

In the case of CACGCTGTGG, the switch fluorescence ratio is reported as 0.946.

Sequence TCCGGGGAAT has a switch fluorescence ratio of 1.14.

For TTCACTGCAG, the switch fluorescence ratio was 0.996.

TGTTGATAG showed a switch fluorescence ratio of 1.

GCATGAGCAT showed a switch fluorescence ratio of 0.999.

Work on GAACCTGTTG yielded a switch fluorescence ratio of 1.03.

Work on TGCGAGTTGG yielded a switch fluorescence ratio of 1.

GTGGTAGCCA was tested, and the switch fluorescence ratio was 1.01.

CACCTCGACC was tested, and the switch fluorescence ratio was 1.12.

Work on ACACGCATCA yielded a switch fluorescence ratio of 1.19.

TATTGACACG gave a switch fluorescence ratio of 0.971.

CCTCATTGAT was tested, and the switch fluorescence ratio was 1.07.

Sequence TAGGGTGACT has a switch fluorescence ratio of 1.05.

Work on TACGAACCAT yielded a switch fluorescence ratio of 1.33.

AGTGAGCACC showed a switch fluorescence ratio of 1.02.

AGATATTTCC showed a switch fluorescence ratio of 1.04.

For GAGGTGGGCA, the switch fluorescence ratio was 1.08.

Work on AAGACTCGG yielded a switch fluorescence ratio of 1.06.

For AACTTGCTTT, the switch fluorescence ratio was 0.98.

GTGTTTCGGA gave a switch fluorescence ratio of 0.978.

ATCATTGTGG gave a switch fluorescence ratio of 0.998.

With TTGGACATTA the switch fluorescence ratio was 1.04.

Work on CTCAGGGGT yielded a switch fluorescence ratio of 1.22.

For AAACTGGTTG, the switch fluorescence ratio was 1.01.

In the case of TTGGTCTGAG, the switch fluorescence ratio is reported as 0.953.

For GGTGAGTGGG, the switch fluorescence ratio was 1.02.

For TGAGATACGG, the switch fluorescence ratio was 1.01.

ATGTGATATC was tested, and the switch fluorescence ratio was 0.991.

In the case of GGTCCGCCGG, the switch fluorescence ratio is reported as 1.11.

In the case of AATGTTAGG, the switch fluorescence ratio is reported as 1.04.

With TCTTTTAAAC the switch fluorescence ratio was 1.01.

Work on TTACAGCCGA yielded a switch fluorescence ratio of 1.06.

AGGCTACGCT was tested, and the switch fluorescence ratio was 1.02.

With TGCTACTGCG the switch fluorescence ratio was 1.01.

AGAAAGGA showed a switch fluorescence ratio of 0.97.

With ACGCTTTCTC the switch fluorescence ratio was 1.77.

For TAATCTTATA, the switch fluorescence ratio was 0.981.

AAAGAATATC gave a switch fluorescence ratio of 1.04.

CTTTCGAGGT was tested, and the switch fluorescence ratio was 1.02.

TGGTTGTGTT gave a switch fluorescence ratio of 0.985.

For CCAGTAAGAA, the switch fluorescence ratio was 1.06.

Sequence TAACGGCCAC has a switch fluorescence ratio of 1.26.

ATTTGACCTG showed a switch fluorescence ratio of 0.97.

AGCACTCACC showed a switch fluorescence ratio of 1.77.

In the case of CAGAAGGGAC, the switch fluorescence ratio is reported as 1.04.

CAGTATCAAC was tested, and the switch fluorescence ratio was 1.02.

Work on ACTCCTTTGT yielded a switch fluorescence ratio of 1.04.

In the case of AAGGCGCAG, the switch fluorescence ratio is reported as 0.969.

TGTCATAAGA was tested, and the switch fluorescence ratio was 0.998.

For TATGCCGCTG, the switch fluorescence ratio was 1.01.

With AACGCGGCTC the switch fluorescence ratio was 1.17.

ATTACGCCCG was tested, and the switch fluorescence ratio was 1.12.

In the case of AAACCTTCAG, the switch fluorescence ratio is reported as 2.03.

CCCTGGTATT was tested, and the switch fluorescence ratio was 0.967.

Work on GGACGAAGTA yielded a switch fluorescence ratio of 0.995.

For AGCAACAACG, the switch fluorescence ratio was 1.03.

With GGAAGCCATG the switch fluorescence ratio was 1.02.

In the case of ATTTGGTCAC, the switch fluorescence ratio is reported as 0.976.

Sequence AGGGTATGCT has a switch fluorescence ratio of 1.02.

ACCTGAATGC gave a switch fluorescence ratio of 1.11.

AAAAGATCCT was tested, and the switch fluorescence ratio was 1.19.

Sequence AACTTAGTAG has a switch fluorescence ratio of 0.99.

ATAGGAAAGA showed a switch fluorescence ratio of 1.02.

GGTATGGGCT showed a switch fluorescence ratio of 1.02.

For TGCAAGTAGC, the switch fluorescence ratio was 1.12.

GCGTCGGTTG showed a switch fluorescence ratio of 0.966.

TGGGACTGAT gave a switch fluorescence ratio of 1.02.

Work on GCGTAGGATG yielded a switch fluorescence ratio of 0.994.

AGGTGAAGTG showed a switch fluorescence ratio of 0.92.

For AGTGGGGCAC, the switch fluorescence ratio was 0.994.

CTCTCCCACG was tested, and the switch fluorescence ratio was 1.63.

In the case of GGTGTTGTCG, the switch fluorescence ratio is reported as 0.971.

Sequence AGGGAGTACG has a switch fluorescence ratio of 1.02.

In the case of CCTCGCTTCT, the switch fluorescence ratio is reported as 3.69.

Sequence GATGGTGATA has a switch fluorescence ratio of 0.986.

CGGCGGGGTA showed a switch fluorescence ratio of 0.998.

AAATCTGGAA was tested, and the switch fluorescence ratio was 1.04.

CCGTCCATT was tested, and the switch fluorescence ratio was 1.01.

Sequence AAGCTTCGAT has a switch fluorescence ratio of 1.

TGAGGAGCT was tested, and the switch fluorescence ratio was 0.972.

GTCTTATTTG was tested, and the switch fluorescence ratio was 1.01.

Sequence ATTGTCGTTT has a switch fluorescence ratio of 1.01.

CGCATGGCGG showed a switch fluorescence ratio of 0.981.

AAAATTCGGC showed a switch fluorescence ratio of 0.994.

Work on AGACAGTGGG yielded a switch fluorescence ratio of 1.05.

Sequence AAGCCGATTT has a switch fluorescence ratio of 1.01.

With TCTATTAACA the switch fluorescence ratio was 1.

For ATGAGTGATC, the switch fluorescence ratio was 1.04.

TTTTTGTCG showed a switch fluorescence ratio of 1.

With CATAGTCAGG the switch fluorescence ratio was 1.04.

In the case of AGTCGATTTG, the switch fluorescence ratio is reported as 0.972.

GGTATATAAG gave a switch fluorescence ratio of 1.02.

With GGGCTGAACT the switch fluorescence ratio was 1.01.

CTTTTACTTG was tested, and the switch fluorescence ratio was 1.02.

Work on CGGTGCGGTT yielded a switch fluorescence ratio of 0.989.

Work on TGGAAGCGCG yielded a switch fluorescence ratio of 1.04.

In the case of AGTTTGATTT, the switch fluorescence ratio is reported as 1.02.

In the case of CGAGCTTGTT, the switch fluorescence ratio is reported as 1.

For AGAACCGTTC, the switch fluorescence ratio was 1.53.

In the case of AAATCAAGTC, the switch fluorescence ratio is reported as 1.06.

TTTGTGGTGT gave a switch fluorescence ratio of 1.24.

TGGTATTCGG gave a switch fluorescence ratio of 0.985.

GATGTCATCG was tested, and the switch fluorescence ratio was 0.945.

TGGCGTTGCG showed a switch fluorescence ratio of 0.984.

With ATGAACATGA the switch fluorescence ratio was 1.04.

CCGCCCACTT showed a switch fluorescence ratio of 1.74.

With AATTTGCATT the switch fluorescence ratio was 1.04.

TGCTATTTAG showed a switch fluorescence ratio of 1.04.

Sequence CGCGGCCTAG has a switch fluorescence ratio of 0.981.

For AAGGTGGCTT, the switch fluorescence ratio was 1.02.

Sequence ACCGTGGTAA has a switch fluorescence ratio of 0.962.

Work on AACCGTCTGC yielded a switch fluorescence ratio of 1.07.

Sequence GTTCCAACCG has a switch fluorescence ratio of 1.06.

In the case of AAGTTCAGTC, the switch fluorescence ratio is reported as 1.04.

Sequence TGAGGTTGAA has a switch fluorescence ratio of 0.952.

In the case of GTAGAGGGGT, the switch fluorescence ratio is reported as 1.06.

GTTGACGATC showed a switch fluorescence ratio of 1.02.

Work on AAGACATGTT yielded a switch fluorescence ratio of 0.965.

Sequence ACAAGAAAAG has a switch fluorescence ratio of 1.06.

Sequence GATACGTAAT has a switch fluorescence ratio of 1.48.

AGCAAGGGTA showed a switch fluorescence ratio of 0.969.

For CTGAGATTTA, the switch fluorescence ratio was 1.03.

For AGGTCAAGAT, the switch fluorescence ratio was 0.968.

CTTAGTATTC showed a switch fluorescence ratio of 0.973.

For TGATGCAGA, the switch fluorescence ratio was 1.07.

For TACGACACTT, the switch fluorescence ratio was 1.46.

For ACTTAGCTCA, the switch fluorescence ratio was 1.05.

ACGAGGGCGA showed a switch fluorescence ratio of 1.05.

For GACTGAGGCT, the switch fluorescence ratio was 1.01.

In the case of CGGGAAAGG, the switch fluorescence ratio is reported as 1.

For TCTGATATTT, the switch fluorescence ratio was 0.985.

Work on AGGTTTCAGT yielded a switch fluorescence ratio of 1.01.

In the case of GTTGGGTAAT, the switch fluorescence ratio is reported as 1.

GTTACGGCCG gave a switch fluorescence ratio of 1.07.

With AATGCCCTAT the switch fluorescence ratio was 0.97.

In the case of AAGGTGGGAA, the switch fluorescence ratio is reported as 0.964.

With AGCTAAGTCT the switch fluorescence ratio was 1.04.

For TGGTCAAAAG, the switch fluorescence ratio was 0.993.

CGCAGGGTAC was tested, and the switch fluorescence ratio was 3.56.

For TTCGGACCCT, the switch fluorescence ratio was 1.19.

In the case of TATATTAG, the switch fluorescence ratio is reported as 1.

With AGAAGCTCGT the switch fluorescence ratio was 1.01.

Work on TCCACTTTGT yielded a switch fluorescence ratio of 0.96.

With GCTTGGGATG the switch fluorescence ratio was 1.02.

In the case of GGTCGTCGGG, the switch fluorescence ratio is reported as 1.06.

Work on CGGAGAGGTA yielded a switch fluorescence ratio of 1.02.

For AATAATCACT, the switch fluorescence ratio was 1.04.

In the case of GATTGTCATT, the switch fluorescence ratio is reported as 0.965.

In the case of GCAACGGAAG, the switch fluorescence ratio is reported as 1.01.

ACAATTACCA gave a switch fluorescence ratio of 1.14.

For TATCTAGTT, the switch fluorescence ratio was 1.02.

For CGGGCCTGA, the switch fluorescence ratio was 1.06.

For TACTGGTCAG, the switch fluorescence ratio was 0.998.
